In the RNAGym collection of RNA variant scans (doi:10.1093/nar/gkz1192):
The source gives no read counts; variants with many changes may rest on few reads.

B1: CPEB3 Ribozyme (parent)
chain: UAACAGGGGGCCACAGCAGAAGCGUUCACGUCGCAGCCCCUGUCAGAUUCUGGUGAAUCUGCGAAUUCUGCUGUAUAUCUC

Variants of: B1
Test: self-cleavage, relative activity (ratio to wild type); higher = more cleavage; in vitro, sequencing
Method in brief: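 Libraries of CPEB3 self-cleaving ribozyme mutants came from rounds of error-prone PCR and carried barcodes, which DNA sequencing matched to variants. In vitro transcription used T7 RNA polymerase at 37°C for 5 hours, with a further 15 min in DNase I before EDTA stopped the reaction; the ribozymes cleaved during both steps. The RNA was reverse transcribed with template switching and sequenced on Illumina. Relative activity is the cleaved/total read fraction of a variant divided by that of the unmutated ribozyme, averaged over three batches with at least 5 reads.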
In the case of A18G C37U G46U A47G U76C, the self-cleavage is reported as 0.06. For A18G C44A A45G, the self-cleavage was 0.27. With A18G A64G U67C the self-cleavage was 0.4. With A18G C39A U41C A57G U76C U80C the self-cleavage was 0.1. In the case of A18G G33U U41A A45G A56G, the self-cleavage is reported as 0.05. In the case of A18G U26A C27U A77G, the self-cleavage is reported as 0.17. For A18G C38U U66C, the self-cleavage was 0.17. With A18G U25C A45U the self-cleavage was 0.39. In the case of A18G U25A A64G, the self-cleavage is reported as 0.22. Work on A18G G24A C37A U67A yielded a self-cleavage of 0.08. A18G G33C A45C U48C U54A A65G showed a self-cleavage of 0.06. Variant A18G C23U U48C U49C A77U has a self-cleavage of 0.04. Variant A18G U25C A56G U58C has a self-cleavage of 0.07. A18G G24A A47G U74A showed a self-cleavage of 0.28. With A18G C34A U54A the self-cleavage was 0.1. Variant A18G A57G G63C G70U U80A has a self-cleavage of 0.22. With A18G A57G A77G the self-cleavage was 0.53. Variant A18G C68A U69C U74A U80A has a self-cleavage of 1.08. Work on A18G C39U G63A A64G U72A yielded a self-cleavage of 0.12. Work on A18G C32A C34U U72A yielded a self-cleavage of 0.12. Work on A18G U26A U41G yielded a self-cleavage of 0.09. A18G U25G A56G G73U gave a self-cleavage of 0.25. Variant A18G C40A U66C has a self-cleavage of 0.15. For A18G C32U U48C C50A U54C U72C, the self-cleavage was 0.07. A18G G19U U41G A57G gave a self-cleavage of 0.09. In the case of A18G G19U A21G A47G, the self-cleavage is reported as 0.1. With A18G U25C C50A the self-cleavage was 0.14. Work on A18G C38U U43C U60C yielded a self-cleavage of 0.21. Variant A18G U25C A45G U60A U66A has a self-cleavage of 0.06. A18G C27A U60C showed a self-cleavage of 0.17. Work on A18G U26C A45G U54C U72C yielded a self-cleavage of 0.3. A18G G30A U58C U72C gave a self-cleavage of 0.13. Work on A18G U25C U74C yielded a self-cleavage of 0.36. In the case of A18G A57G U60A, the self-cleavage is reported as 0.39. For A18G U25C U60A A64U, the self-cleavage was 0.08. A18G G46A A47G U54C showed a self-cleavage of 0.07. In the case of A18G C29U A47G, the self-cleavage is reported as 0.33. For A18G U31A A57G, the self-cleavage was 0.44. For A18G U25C U43A U58G, the self-cleavage was 0.07. A18G C34U U41C U49C U67G U76A showed a self-cleavage of 0.06. A18G G46A U74A showed a self-cleavage of 0.29. For A18G G36A U43C A57G U58C U74A U76A, the self-cleavage was 0.04. In the case of A18G U25C C37U U51A C59U U72A, the self-cleavage is reported as 0.06. Variant A18G U25C C38U has a self-cleavage of 0.07. Variant A18G U26C U31C U72C has a self-cleavage of 0.1. With A18G C44G A45G U74G U80C the self-cleavage was 0.11. A18G U26C U43A U49A A57U showed a self-cleavage of 0.09. Variant A18G C38A U41C A64G U80C has a self-cleavage of 0.16. With A18G U25C U41A U58C U80C the self-cleavage was 0.25. Variant A18G C39A A45U A75U has a self-cleavage of 0.2. A18G U25C U51C U58C showed a self-cleavage of 0.03. Variant A18G U25C U58A U66C A77U U80A has a self-cleavage of 0.03. With A18G C34U U58C the self-cleavage was 0.08. Variant A18G U26C U41C U43C U66A has a self-cleavage of 0.07. Variant A18G U25C A35U U41C A47C A57G U74A has a self-cleavage of 0. In the case of A18G U26C U60C U72A, the self-cleavage is reported as 0.12. For A18G U26C A45U U51C, the self-cleavage was 0.31. With A18G U25C G46A A64G U69A the self-cleavage was 0.14. In the case of A18G G30A U41C U43C A57G U69G, the self-cleavage is reported as 0.18. Work on A18G U26C G33C yielded a self-cleavage of 0.21. Work on A18G G24A A28G U72A yielded a self-cleavage of 0. In the case of A18G A64G U72A, the self-cleavage is reported as 0.33. Work on A18G G22A U51A U58C U60C U67C yielded a self-cleavage of 0.04. Variant A18G C27U U41C U43A A47U U60A has a self-cleavage of 0.06. With A18G C23U G53C A75G the self-cleavage was 0.06. With A18G G30A U49C A65G U69A the self-cleavage was 0.32. Variant A18G U26G U43G A56U has a self-cleavage of 0.08. With A18G C37A U51A A65G U67C U76A U78C the self-cleavage was 0.07. In the case of A18G U31A C38A U54A U69A, the self-cleavage is reported as 0.18. With A18G C37G A45G U69A the self-cleavage was 0.18. With A18G G19U U41C A45G U51A the self-cleavage was 0.23. With A18G U26C A47G C71A the self-cleavage was 0.12. Work on A18G A64U U72A yielded a self-cleavage of 0.15. Work on A18G C44U U60A U66C yielded a self-cleavage of 0.25. For A18G U25C U31A U54A U67C U72C A77G, the self-cleavage was 0.08. Variant A18G U26C A45G has a self-cleavage of 0.07. A18G G19A U76C gave a self-cleavage of 0.48. Variant A18G G61A A65U C71U has a self-cleavage of 0.31. In the case of A18G U26A C34U A45G U49C A56U, the self-cleavage is reported as 0.05. For A18G A56G U72C, the self-cleavage was 0.58. In the case of A18G C37U U69C G73C U74C, the self-cleavage is reported as 1.25. In the case of A18G A57G U78C U80A, the self-cleavage is reported as 0.84. With A18G G33A U69C the self-cleavage was 0.16.
